Measured values published in the supplement of paper PMC3334620.
Over roughly 33,000 sequences, “E-score (-0.5 to 0.5)” has its median near -0.056; the highest 2% begin near 0.38. The list shows a part of the results.

target: Stb4 (UniProt P50104); test: PBM E-score (8-mer binding enrichment) (E-score (-0.5 to 0.5)); higher = stronger / more preferred TF binding; most listed sequences are background and not binding sites; conditions: protein concentration: 200 nM; construct: GST-DNA-binding domain
Protocol: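 Universal 'all 10-mer' protein binding microarrays (Agilent AMADID 015681) probed with GST-tagged S. cerevisiae TFs (full-length or DBD) made by in vitro transcription/translation (PURExpress), about 100-200 nM. Bound TF was detected with fluorescent anti-GST. Each ungapped 8-mer (which stands for itself and its reverse complement) is scored by the PBM enrichment score (E-score), a modified Wilcoxon-Mann-Whitney statistic from -0.5 to +0.5, computed with the Universal PBM Analysis Suite. Scale: above 0.35 generally sequence-specific binding.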

| Sequence | PBM E-score |
| --- | --- |
| GGTCTCGA | 0.0101 |
| GACGGTCA | -0.244 |
| AAGCACCG | 0.0356 |
| GCGCCTGA | -0.146 |
| CACTGGAC | 0.0415 |
| ATAGGGAT | -0.152 |
| GTCACAAC | 0.00653 |
| GCGAGGAC | -0.224 |
| CGACGGAA | 0.347 |
| CTTGCTTC | -0.172 |
| AGTTCATA | -0.0667 |
| CACCTGGG | -0.247 |
| AGTGATGG | -0.0275 |
| AGCCACGA | -0.159 |
| CCATCGAC | -0.155 |
| ATGGTAAC | -0.0572 |
| TAGAAAAA | 0.0911 |
| GAACGTCC | 0.141 |
| AACTATGA | -0.0574 |
| AGGCCATA | -0.164 |
| ACTTAGTG | -0.0923 |
| ATCGATAC | -0.193 |
| AGGATAAC | -0.159 |
| CTACGCAA | -0.116 |
| CCTAGCAG | -0.21 |

| Sequence | PBM E-score |
| --- | --- |
| GTTGGTTA | -0.111 |
| AGTTTACG | -0.0171 |
| AGTCTTAT | -0.0532 |
| CGCGGTCC | 0.145 |
| CATGCTTC | -0.123 |
| AAATGAAC | -0.14 |
| GACAGATA | -0.00079 |
| GTCATTAA | -0.0639 |
| CAGCTACG | -0.293 |
| GCCACGTA | -0.197 |
| CCCGCAGC | 0.207 |
| GGGAAATA | 0.157 |
| CTATCTGC | -0.057 |
| GGCAGTTA | -0.00874 |
| CAACGGCA | 0.121 |
| GATCGCAA | 0.00904 |
| CCGCGGCG | 0.202 |
| CCAGTGAA | -0.0757 |
| GACGCCTA | -0.153 |
| CAAAAGCC | 0.0286 |
| CGATTGTC | 0.0483 |
| CTGATCGA | -0.208 |
| AATACAGC | -0.112 |
| TCCCCAAA | -0.197 |
| ACTTCATC | -0.0629 |

| Sequence | PBM E-score |
| --- | --- |
| AGGTCGTG | -0.273 |
| GAAGGTAC | -0.153 |
| CACGCTGA | -0.26 |
| CAGCGCAG | -0.0654 |
| CAAGACCC | 0.0339 |
| AAGACTCG | 0.0658 |
| AGTTCACC | -0.0122 |
| GAGGCCAC | -0.0201 |
| CGTGATAA | -0.0309 |
| CCTCACAG | -0.0831 |
| GTTTGGTA | -0.0358 |
| ATTCTTCG | 0.0218 |
| AAAGCCTT | -0.122 |
| CTGCATAA | 0.0639 |
| CAATGATA | -0.262 |
| AGGCCACA | -0.253 |
| AGGTAATA | -0.0148 |
| GTGGCCCA | -0.13 |
| ATCCCTCG | 0.238 |
| AGTGTGCA | -0.13 |
| CAAGACGA | -0.085 |
| ACGTTGAT | -0.102 |
| CTGGCGGC | 0.139 |
| GTAGCGTA | 0.0406 |
| ATTCGATG | -0.148 |

| Sequence | PBM E-score |
| --- | --- |
| ATCGCTCA | -0.0805 |
| ATTTGAGC | -0.0256 |
| ACAGCCCA | -0.062 |
| CATAGGTA | -0.0802 |
| ATGACATA | -0.136 |
| CCGACCGG | 0.35 |
| CGATGCAA | 0.119 |
| AAATTGTG | -0.295 |
| AAGGCTGA | -0.192 |
| AAGAACAC | -0.0126 |
| ACCGAACT | 0.365 |
| CTGGTTTC | 0.0875 |
| AGCACAAC | 0.0479 |
| TCAATGGA | -0.173 |
| GGTCGTGA | -0.153 |
| ATACTTTG | -0.155 |
| GAGAACCC | 0.14 |
| AGATGCAG | -0.244 |
| AATTATCT | 0.0435 |
| CTCTTATA | -0.00872 |
| CAGTGCAC | -0.0135 |
| GACCCCAC | 0.0629 |
| ACCTGACC | -0.114 |
| AAAAACAC | -0.0299 |
| CCAGTGCC | -0.138 |

| Sequence | PBM E-score |
| --- | --- |
| ATTTTGCA | -0.103 |
| AGCCGTAT | 0.0974 |
| GACCGGCC | 0.184 |
| CCGCGCAC | 0.0141 |
| AATCAAAA | 0.0461 |
| GAGGCAGA | -0.19 |
| CAATTAAC | -0.0116 |
| CCCGCCGG | 0.252 |
| ACGTAGTC | -0.211 |
| ACGCAGCC | 0.023 |
| AAATTAGT | -0.165 |
| AAAAGCCG | 0.281 |
| GACAACAA | -0.223 |
| AGCGGAAG | 0.335 |
| AGAGATAT | -0.167 |
| AGTGAAGA | -0.212 |
| GAGTGCAC | 0.0722 |
| AATTTTCC | 0.327 |
| GGGAGCCC | -0.0552 |
| AACATTTA | 0.144 |
| AGCCATGA | -0.0457 |
| CAGATTAG | -0.195 |
| TAACTTCA | -0.143 |
| CTGTTGTA | -0.15 |
| AAAGAACA | -0.114 |

| Sequence | PBM E-score |
| --- | --- |
| CCTATAAA | -0.135 |
| CGGGAAAA | 0.359 |
| GCCGGCGA | 0.214 |
| CGTTTTCA | -0.0125 |
| GTGTTCGA | -0.176 |
| AAACGTCC | -0.126 |
| CCGCCCCG | 0.374 |
| ATAAAATA | -0.0366 |
| GATGTCGC | -0.0282 |
| GATTGGGA | -0.131 |
| CTCATACC | 0.00427 |
| CTGGTGGC | -0.167 |
| CGCTAGTA | 0.0633 |
| GCTTCACA | -0.0986 |
| AATCTCAG | -0.185 |
| ACTTCTTG | 0.0197 |
| GCGAGCAC | -0.135 |
| GCTCAAAC | 0.0586 |
| AGTCGCAT | -0.137 |
| ATTATGAA | -0.0797 |
| AGGTGGAC | -0.149 |
| GTTCCGCA | 0.293 |
| GAACGGTA | 0.0439 |
| ATCTTGAC | -0.215 |
| AATTGGCA | -0.174 |

| Sequence | PBM E-score |
| --- | --- |
| AGGGGTTC | -0.108 |
| CCAGTACA | -0.271 |
| CGTGAATC | -0.0256 |
| GGTCCAGA | -0.144 |
| AAGTAGAT | 0.0783 |
| ACGATGCG | -0.245 |
| CGCTCACG | 0.0904 |
| ACTGCCTG | -0.22 |
| ACGTGAAT | -0.147 |
| AACGTACG | -0.191 |
| GCGGCTAC | 0.169 |
| CGTCTACC | 0.0015 |
| AGCCGGAC | 0.239 |
| CGCAGGTA | -0.0206 |
| GGGGAGAA | 0.0293 |
| CGCCCCCC | -0.129 |
| CCGGTTAA | 0.334 |
| CGTTACTC | -0.0977 |
| GACCCGAC | 0.384 |
| TATCATGA | -0.145 |
| ACCTAGAA | -0.144 |
| ACCTTATA | -0.0931 |
| CCAAACGG | 0.0787 |
| GCCTTCCA | -0.24 |
| AATTGGCC | -0.0899 |

| Sequence | PBM E-score |
| --- | --- |
| ATTTATAC | 0.173 |
| ATATAGAG | -0.154 |
| ACCTCCTA | -0.155 |
| CAGAATCG | 0.194 |
| GCAGGATA | -0.241 |
| AGTTACAC | -0.0471 |
| AGTTGGAT | -0.0955 |
| CGACATAC | -0.0694 |
| GACGGCAC | 0.0854 |
| GTAAAGTA | -0.131 |
| CCAATGTA | -0.00695 |
| GCACGACC | -0.0299 |
| CAAGTGTC | -0.171 |
| AACCAGAG | -0.221 |
| AAGCGGGT | 0.168 |
| ATTCCCTC | -0.0926 |
| CCTTAAGA | -0.315 |
| GAACAGAA | 0.0155 |
| ACGTACTG | -0.241 |
| CCCGGGCG | 0.287 |
| CACGTAGG | -0.293 |
| CGGAATTC | 0.322 |
| CTTATTAC | -0.146 |
| ACCGTGCC | 0.0178 |
| TCAACAGA | 0.0285 |

| Sequence | PBM E-score |
| --- | --- |
| CGCAGTGC | -0.207 |
| AGCGAGAA | -0.105 |
| ACGTATCG | -0.117 |
| ACGTGCTC | -0.0136 |
| ACGGCTCA | 0.0829 |
| ATACTAAC | 0.0905 |
| CAGAAGCA | -0.184 |
| CTCGGCCA | 0.251 |
| AAAGTTTG | -0.048 |
| GCTCAGTA | -0.24 |
| ACGAGTAA | -0.0622 |
| ATACAGCG | -0.187 |
| CTTATAAC | 0.0116 |
| CTACCCAC | -0.117 |
| GATCACCC | 0.0178 |
| ACTGCTGG | -0.211 |
| CGTGCACC | -0.102 |
| ACCTACTG | -0.0984 |
| CTGCGAGA | -0.238 |
